Measurements reported in PubChem BioAssay (NCATS).
Where “and” joins values, the source holds several entries; their conditions need not be identical. Equal values may be shown once. Inconclusive means that the source gave no clear call. Such entries were picked first, then a sample of the others. A potency beside an inconclusive call is a rough fit, not a confirmed value. Calls of active or inactive are those of the source. Calls follow the shape of the dose curve; as a rule, active = well fitted curve in the direction sought with a large enough effect; inconclusive = small, poorly fitted or top-dose-only effect, or another doubt; inactive = no such curve, though single readings can be large; an effect the other way counts as inactive or inconclusive.

Assays:
[1] = qHTS of pediatric cancer cell lines to identify multiple opportunities for drug repurposing: Primary screen for BT-37 cells (AID 1347094)
Summary of the method: (§1)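 Cells seeded at 500-1,000 cells/well in growth media, rested 5 hours at 37 degrees C, 5% CO2, then dosed; MIPE compounds at 11-point (from 0.78 nM) and NPC at 8-point (from 0.59 nM) final concentrations. Viability by CellTiter-Glo luminescence after 48 hours.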

[2] = qHTS of pediatric cancer cell lines to identify multiple opportunities for drug repurposing: Primary screen for NB-EBc1 cells (AID 1347095)
Summary of the method: as §1

[3] = qHTS of pediatric cancer cell lines to identify multiple opportunities for drug repurposing: Primary screen for SK-N-SH cells (AID 1347098); conditions: SK-N-SH viability, CellTiter-Glo luminescence, 48 h; activity change, negative = cytotoxic: at 57 µM (top of the series) unless noted; also: nearly all actives have a fitted effect of over 65% in size
Summary of the method: (§2)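 Cells (500-1,000/well) rested 5 h, then received compounds for 48 h; metabolically active cells were measured by CellTiter-Glo luminescence. Final concentrations spanned up to 46 µM (MIPE, 11-point) or 0.59 nM-46 µM (NPC, 8-point) in primary screens, 11-point in follow-ups.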

[4] = qHTS of pediatric cancer cell lines to identify multiple opportunities for drug repurposing: Primary screen for LAN-5 cells (AID 1347100); conditions: LAN-5 neuroblastoma viability, CellTiter-Glo luminescence, 48 h; activity change, negative = cytotoxic: at 46 µM (top of the series) unless noted
Summary of the method: (§3)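 Viability after 48 h compound treatment at 37C, 500-1,000 cells/well, read as ATP luminescence with CellTiter-Glo. Primary screens used 11-point (MIPE, 0.78 nM-46 µM) or 8-point (NPC, 0.59 nM-46 µM) final concentrations; follow-up screens used 11-point dilutions.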

[5] = qHTS of pediatric cancer cell lines to identify multiple opportunities for drug repurposing: Primary screen for BT-12 cells (AID 1347101); also: nearly all actives have a fitted effect of over 25% in size
Summary of the method: as §2

[6] = qHTS of pediatric cancer cell lines to identify multiple opportunities for drug repurposing: Primary screen for U-2 OS cells (AID 1347096); also: nearly all actives have a fitted effect of over 50% in size
Summary of the method: as §3

[7] = qHTS of pediatric cancer cell lines to identify multiple opportunities for drug repurposing: Primary screen for NB1643 cells (AID 1347099); also: nearly all actives have a fitted effect of over 50% in size
Summary of the method: as §1

[8] = qHTS of pediatric cancer cell lines to identify multiple opportunities for drug repurposing: Primary screen for Rh18 cells (AID 1347102); also: nearly all actives have a fitted effect of over 65% in size
Summary of the method: as §3
Potency is read from the fitted curve at half-maximal effect; tags tell the direction and shape of the fitted curve.

SMILES	Potency [1]	Potency [2]	Potency [3]	Potency [4]	Potency [5]	Potency [6]	Potency [7]	Potency [8]
Nc1ccccc1C(=O)O	inactive	–	–	–	–	–	–	–
CCCCCCCCc1ccc(O)cc1	inconclusive: 25.4 µM [cytotoxic, partial curve, poor fit]	inconclusive: 15.5 µM [cytotoxic, partial curve]	inconclusive: 14.2 µM [cytotoxic, partial curve, poor fit]	inconclusive: 3.47 µM [cytotoxic, full curve]	inconclusive: 28.5 µM [cytotoxic, partial curve]	–	–	–
Cc1ccc([N+](=O)[O-])[c]2c1[O][Hg]2	active: 1.55 µM	inconclusive: 29.9 µM [cytotoxic, single point]	–	inconclusive: 21.1 µM [cytotoxic, single point]	active: 2.76 µM	active: 2.66 µM	active: 0.596 µM	active: 1.5 µM
Fc1ccc(C(OCCN2CCN(CCCc3ccccc3)CC2)c2ccc(F)cc2)cc1	active: 21.7 µM and active: 24.6 µM	inconclusive: 29.6 µM [cytotoxic, single point] and active: 23.7 µM	inconclusive: 34.1 µM [cytotoxic, single point] and active: 9.7 µM	–	–	inconclusive: 21.1 µM [cytotoxic, single point]	inconclusive: 29.9 µM [cytotoxic, single point]	inconclusive: 33.2 µM [cytotoxic, single point] and inconclusive: 29.9 µM [cytotoxic, single point]
